# Experimental data taken from PubChem BioAssay AID1454 (National Center for Advancing Translational Sciences (NCATS), 2008).
# About 550 (0.42%) of roughly 130,000 compounds were called active. The shares of active, inactive and inconclusive entries below differ from those in the screen. Calls follow the shape of the dose curve; as a rule, active = well fitted inhibition curve with a large enough effect; inconclusive = small, poorly fitted or top-dose-only effect, or effect the other way; inactive = flat fitted curve, though single readings scatter. Potencies of inconclusive entries are left out as doubtful fits.
# Assay: qHTS Assay for Inhibitors of the ERK Signaling Pathway using a Homogeneous Screening Assay; Stimulation with EGF; also: nearly all actives have a fitted effect of over 55% in size;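 as to activity change, negative = inhibition: plate controls were stimulated vehicle wells for no effect and unstimulated vehicle basal for full effect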
# Conditions: HEK293-V1b, EGF-stimulated phospho-ERK AlphaScreen; activity change, negative = inhibition: at the top concentration
# From the text: NIH Chemical Genomics Center [NCGC]
# NIH Molecular Libraries Screening Centers Network [MLSCN]
# Assay Submitter (PI): Dr. Wei Zheng, NCGC/NIH
# The Ras/extracellular-signal-regulated kinase (ERK) mitogen activated protein (MAP) kinase signaling pathway (ERK1/2 cascade) plays a key role in transmitting signals from the cell surface to the nucleus (Nishida and Gotoh 1993; Chang and Karin, 2001). The cascade is initiated by the small G-protein Ras, which recruits Raf from the cytosol, where activation occurs. Alternatively, this pathway can be activated by elevating intracellular cAMP, or by activation of a receptor tyrosine kinase as epidermal growth factor receptor.
# Activation of the ERK pathway is essential in increased cell division and cell survival. Sustained and constitutive activation of the ERK pathway, however, has been linked to uncontrolled cell proliferation, increased cell survival, and tumor progression. Thus, the ERK has been as an attractive target for cancer chemotherapy in the past few years (Sebolt-Leopold and Herrera, 2004). Given its physiological and pathological importance, assessment of ERK phosphorylation has been broadly performed in both basic research and drug discovery. Most assays for the measurement of ERK phosphorylation use the antibody-based detection methods, such as western blot and ELISA. These assays require multiple reagent additions with cell wash steps and are not suitable for high throughout screening.
# The current cell-based ERK phosphorylation assay was performed using AlphaScreen platform. AlphaScreen is a two bead-based proximity-dependent chemical energy transfer luminescent assay platform. The assay reagents (ERK SureFire(TM) kit) were supplied from TGR BioSciences (Australia). In the presence of specific antibodies, phosphorylated ERK will bring "donor" and "acceptor" beads to a proximity range (<200 nm), and subsequently lead a chemical luminescent reaction upon exciting donor beads with 680 nm laser. To exclude the assay-related false positives, we used a biotinylated rabbit IgG to perform counter-screen. The biotinylated antibody mimics the phosphorylated ERK1/2 for bringing streptavidin coated beads and protein-A coated beads to a proximity range for the AlphaScreen detection.
# NCGC Assay Protocol Summary:
# HEK293 cells stably expressing type-1 vasopressin receptor (V1b) were maintained in DMEM medium (Invitrogen, Carlsbad, CA) at 37C under a humidified atmosphere containing 5% CO2 and 95% air. The medium contained 10% FBS, 2 mM L-glutamine, non-essential amino acid, pyruvate and 50 U/ml penicillin and 50 ug/ml streptomycin (Invitrogen). The aliquots of frozen cells were stored at -135C and used for the compound screening. All compounds were screened as titrations from 0.6 nM to 46 uM final concentration. Epidermal growth factor (EGF) was used to stimulate the ERK phosphorylation pathway. The ERK phosphorylation in cells was determined using an AlphaScreen assay kit provided by […]. Data were normalized to the controls for basal activity (DMSO only) and 100% activation (25 nM EGF). AC50 values were determined from concentration-response data modeled with the standard Hill equation.
# (1) Seed 4 ul/well of resuspended frozen HEK293 cells containing 2000 cells in white 1536-well plates for overnight with 1% FBS at 37C under a humidified atmosphere containing 5% CO2 and 95% air.
# (2) Add 23 nL compounds in DMSO solution. The final titration was 0.6 nM to 46 uM.
# (3) Incubate at 37C for 30 min.
# (4) Dispense 0.5uL EGF (25 nM in final)
# (5) Incubate at 37C for 5 min.
# (6) Dispense 0.5uL of 1:2 diluted 5x lysis buffer.
# (7) Incubate at 37C for 10 min.
# (8) Dispense 1.5uL of mixture of activation buffer and reaction buffer with AlphaScreen beads (streptavidin donor beads and protein-A acceptor beads, 10 ng/well for each).
# (9) Incubate at room temperature for 5 hr.
# (10) Detect the assay plate in an EnVision plate reader (PerkinElmer) using the AlphaScreen detection mode.
# […]
# Potency is read from the fitted curve at half-maximal effect; tags tell the direction and shape of the fitted curve.
Compound,Potency,"activity change, negative = inhibition"
S=C(Nc1ccc(Cl)cc1)NC1CC2CCC(C1)N2Cc1ccccc1 (stereo not drawn),"inconclusive [inhibitor, single point]",–
Cc1ccc(C(=O)c2no[n+]([O-])c2C(=O)c2ccc(C)cc2)cc1,"inconclusive [inhibitor, single point]",–
COc1ccc(Nc2nccc(N(C)C)c2C#N)cc1,"inconclusive [inhibitor, single point]",–
COC(=O)c1ccccc1-c1ccc(/C=N/Nc2nc(N3CCCC3)nc(N3CCCC3)n2)o1,"inconclusive [inhibitor, single point]",–
O=[N+]([O-])c1ccc(N/N=C/c2ccccc2)cc1,"inconclusive [inhibitor, single point]",–
Cc1cc(C)nc(/N=C(\N)Nc2ccc(C(C)C)cc2)n1,"inconclusive [inhibitor, partial curve]",–
Cc1nc(Sc2ccc(Cl)cc2)c(C#N)c(C)c1[N+](=O)[O-],"inconclusive [inhibitor, partial curve]",–
C[C@@H]1CC[C@@]2(OC1)OC1CC3C4CC=C5CC(O)CCC5(C)C4CCC3(C)C1[C@@H]2C (stereo partly drawn),–,inactive: 7.77%
COc1ccc(NC(=O)Nc2cccc([N+](=O)[O-])c2)cc1Cl,"inconclusive [inhibitor, single point]",–
N#Cc1ccc(-c2ccco2)nc1SCC(=O)c1ccc(Cl)cc1,"inconclusive [inhibitor, full curve, poor fit]",–
Nc1c(C(=O)Nc2ccccc2)c2nc3ccccc3nc2n1CCCN1CCOCC1,"inconclusive [inhibitor, single point]",–
O=C(NCCOc1ccc(F)cc1)c1ccccc1SCc1ccccc1,"inconclusive [inhibitor, single point]",–
O=C(CCc1nnc(Cc2ccc3c(c2)OCO3)o1)NCc1nc2ccccc2s1,–,inactive: -4.5%
COc1ccc(S(=O)(=O)Nc2cccc(SC)c2)cc1OC,–,inactive: 1.21%
COc1ccc(Cn2cccc(NC(=O)Nc3cccc(OC)c3)c2=O)cc1,"inconclusive [inhibitor, single point]",–
CCCCC(=O)NC1=C(C(=O)OC)SCC1,"inconclusive [inhibitor, single point]",–
C/C(=N/OC(=O)C1CC1c1ccccc1)c1ccccc1 (stereo not drawn),"inconclusive [activator, single point]",–
O=C(NC(=S)Nc1cccc2c(O)cccc12)c1cccc(Br)c1,"inconclusive [inhibitor, single point]",–
C=CCOc1ccc(Br)cc1CNCCO,"inconclusive [inhibitor, single point]",–
Cc1cc(OCC(=O)Nc2ccc(Br)cc2)cc2c1C(=O)CC(C)(C)O2,"inconclusive [inhibitor, single point]",–
CCS(=O)(=O)c1ccc(O)c(NC(=O)COc2ccc(Cl)cc2)c1,–,inactive: -0.946%
CC(C)(C)c1ccc(/C=C/C(=O)O)s1,"inconclusive [inhibitor, single point]",–
O=C(N/N=C/c1ccc(-c2ccccc2[N+](=O)[O-])o1)c1cncc(Br)c1,"inconclusive [inhibitor, single point]",–

Compound,Potency,"activity change, negative = inhibition"
COc1ccc(N2CCC(CNC(=S)Nc3cc(C)cc(C)c3)C2)cc1 (stereo not drawn),active: 14.1 µM,–
COc1c(O)c(O)cc2c1oc1c3ccccc3oc(=O)c21,–,inactive: 4.85%
COc1ccc(C2NCCc3c2[nH]c2ccccc32)cc1CN1CCc2cc(OC)c(OC)cc2C1C (stereo not drawn),"inconclusive [inhibitor, single point]",–
COC(=O)C1(Cc2ccccc2)C=C2C(=C(c3ccccc3)C(=O)C2C)CN1 (stereo not drawn),–,inactive: 2.52%
Cc1ccc(S(=O)(=O)N2CCN(c3ccc(C(F)(F)F)cc3[N+](=O)[O-])CC2)cc1,"inconclusive [inhibitor, single point]",–
CCOc1ccc(/C=C2/Sc3ccc(C(=O)N4CCN(C(=O)c5ccco5)CC4)cc3N(C)C2=O)cc1OC,"inconclusive [inhibitor, full curve, poor fit]",–
Clc1ccc(C2Nc3ccccc3-n3cccc32)cc1 (stereo not drawn),"inconclusive [activator, partial curve]",–
COCCn1c(=O)c(-c2ccc(Cl)cc2)nc2cnc(Oc3ccccc3)nc21,–,inactive: 2.35%
N#C/C(=C\c1cc2ccccc2nc1N1CCOCC1)C(=O)Nc1ccc(N2CCOCC2)cc1,"inconclusive [inhibitor, partial curve]",–
COc1cc(O)c(C(CCN2CCN(c3ccccc3)CC2)c2ccc(N(C)C)cc2)c(OC)c1 (stereo not drawn),active: 17.8 µM,–
CN(C)CCNC(=O)/C(=C/c1ccc(-c2cccc(Cl)c2)o1)NC(=O)c1ccccc1,"inconclusive [inhibitor, single point]",–
COc1ccc2c(c1)[nH]c1c(N3CCSCC3)ncnc12,active: 28.2 µM,–
CC(=O)Nc1cc(-c2ccccc2)nn1Cc1ccc(Cl)cc1,"inconclusive [activator, single point]",–
COc1ccccc1N1CCN(C[C@@H](C(=O)NC(C)(C)C)c2ccccc2)CC1,–,inactive: 3.58%
O=C1/C(=C/c2cccs2)SC(=S)N1c1cccc(O)c1,"inconclusive [inhibitor, single point]",–
CN(C1=C(N2CCOCC2)C(=O)c2ccccc2C1=O)c1ccccc1,active: 11.2 µM,–
CNS(=O)(=O)c1ccc2nc(NC(=O)/C=C/c3ccco3)sc2c1,"inconclusive [activator, full curve]",–
CS(=O)(=O)N(CC(=O)N/N=C/c1ccccc1C(=O)O)c1cccc(Cl)c1Cl,"inconclusive [inhibitor, single point]",–
CC(C)Oc1ccc(-c2nc(NCC3CCCO3)c3ccccc3n2)cc1 (stereo not drawn),active: 31.6 µM,–
Cc1ccc2nc(=O)c(NNc3ccccc3)cnc2c1,active: 14.1 µM,–
COC(=O)c1ccc(C(=O)OCc2nc3cc4ccccc4cc3[nH]2)cc1,"inconclusive [inhibitor, partial curve, poor fit]",–
O=C(Cc1c(Cl)cccc1Cl)NCCc1ccc(Cl)cc1,–,inactive: 1.54%
CS(=O)(=O)N(CC(=O)NCc1ccc2c(c1)OCO2)c1cccc(Cl)c1,–,inactive: -14.4%

Compound,Potency,"activity change, negative = inhibition"
CCCc1ccc(OCc2ccc(C(=O)Nc3cccc(C)n3)o2)c(OC)c1,"inconclusive [inhibitor, partial curve]",–
O=C(c1ccc(N2CCN(C3CC(=O)N(Cc4cccs4)C3=O)CC2)cc1)c1cccnc1 (stereo not drawn),"inconclusive [inhibitor, single point]",–
COCCOC(=O)c1c(NC(=O)CNC2CCCc3ccccc32)sc(C(N)=O)c1C (stereo not drawn),"inconclusive [inhibitor, single point]",–
CC1(C)OC(C(=O)NC2CCCCC2)C(C(=O)NC2CCCCC2)O1 (stereo not drawn),"inconclusive [activator, single point]",–
Cc1cccc(NC2=C(NC(=O)c3ccccc3)C(=O)c3ccccc3C2=O)c1,"inconclusive [inhibitor, partial curve]",–
CC1=NN(c2ccccc2)C(=O)/C1=C/N(C)C,–,inactive: 7.82% [at 57.5 µM]
COc1ccccc1C(=O)/C=C/c1ccc(N2CCCCC2)c([N+](=O)[O-])c1,active: 15.8 µM,–
CCCCOC(=O)c1ccc(NC(=O)c2ccccc2OC)cc1,"inconclusive [inhibitor, single point]",–
CN(C)c1ccc(/C=C2\C(=O)Nc3ccccc32)cc1,"inconclusive [inhibitor, single point]",–
Fc1ccc2[nH]c3c(c2c1)CN(C(=S)NCc1ccccc1)CC3,"inconclusive [inhibitor, single point]",–
Oc1c(Cl)cc(Cl)cc1Sc1cc(Cl)cc(Cl)c1O,"inconclusive [inhibitor, single point]",–
CCOc1cc(-c2nc(C)c(C(C)=O)n2O)ccc1OCC(=O)Nc1ccccc1,"inconclusive [inhibitor, single point]",–
CN(C)c1ccc2c(c1)Sc1cc(N(C)C)ccc1N2C(=O)c1ccccc1,"inconclusive [inhibitor, partial curve]",–
CN=c1scc(-c2cccs2)n1/N=C/c1ccc(O)c(O)c1O,"inconclusive [inhibitor, single point]",–
Cc1c(C(=O)OCC(=O)Nc2ccc(S(N)(=O)=O)cc2)oc2c1ccc1ccccc12,"inconclusive [activator, partial curve, poor fit]",–
CCOC(=O)Cc1c(C)nc2c(-c3cccc(Br)c3)cnn2c1C,"inconclusive [activator, single point]",–
Cc1ccc(NC(=O)c2ccco2)c([N+](=O)[O-])c1,–,inactive: 3.38%
O=C(NCc1ccc(F)cc1)c1ccc(N2CCc3ccccc32)c([N+](=O)[O-])c1,"inconclusive [inhibitor, single point]",–
N#CCCn1nc(-c2ccc(Br)cc2)cc1Nc1ccccc1NC(=O)C(F)(F)F,"inconclusive [inhibitor, single point]",–
O=S(Cc1ccc(Cl)cc1)c1ncc(CO)n1Cc1ccccc1 (stereo not drawn),"inconclusive [inhibitor, partial curve]",–
COCCNc1ccnc(-c2ccccc2CN(C)C)n1,–,inactive: 9.7%
Nc1[nH]n(-c2ccccc2)c(=O)c1N=Nc1ccc2c(c1)OCO2,active: 22.4 µM,–
